Results as given in PubChem BioAssay AID1347434 (National Center for Advancing Translational Sciences (NCATS), 2020).
The whole screen tested about 1,200 compounds, of which about 30 (2%) were called active. Roughly 23% stayed inconclusive and do not appear here. The call rests on the fitted dose curve; in most records, active means well fitted inhibition curve with a large enough effect; inconclusive means small, poorly fitted or top-dose-only effect; inactive means flat fitted curve, though single readings scatter. Some of the results follow.

The compounds below were run against Single-stranded DNA cytosine deaminase (Homo sapiens) (UniProt Q9GZX7) (assay: Confirmatory qHTS assay for inhibitors of Activation Induced Cytidine Deaminase (AID): AID signals). Conditions: recombinant AID, FRET deamination/UDG coupled fluorescence, 4 h; series mostly up to 115 µM; activity, negative = inhibition: at the top concentration.
Chain of UniProt Q9GZX7 (Q9GZX7 whole entry, looked up): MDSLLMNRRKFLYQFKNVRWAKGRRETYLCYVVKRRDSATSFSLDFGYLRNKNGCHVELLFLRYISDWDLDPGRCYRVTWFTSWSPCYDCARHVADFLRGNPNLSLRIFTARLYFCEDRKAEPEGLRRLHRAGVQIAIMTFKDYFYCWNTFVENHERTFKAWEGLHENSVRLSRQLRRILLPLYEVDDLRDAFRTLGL
Excerpt: Assay Provider (PI) Patricia Gearhart Ph.D. National Institute on Aging National Institute of Health (NIH), Bethesda, MD Assay Provider (PI) Rahul Kohli Ph.D. Perelman School of Medicine University of Pennsylvania, Philadelphia, PA Activation-Induced Deaminase (AID) is a cytosine deaminase which converts cytosine into uracil within stretches of ssDNA. The presence of uracil in DNA initiates a cascade of mutagenic DNA repair to introduce point mutations and DNA double strand breaks. Specific targeting of AID to the immunoglobulin heavy chain loci (Igh) promotes mutagenesis in the antibody variable region for somatic hypermutation (SHM) or switch regions leading to class switch recombination (CSR). However, AID also plays a role in accumulating unnecessary mutations across the genome. Mis-targeting of AID results in the initiation of tumor development and leads to greater drug resistance among cancer cells when continually expressed. To identify an AID inhibitor, a small molecule library will be screened in collaboration with NCATS core facility at NIH. To confirm biological function, inhibitors will be examined in an in vitro murine B-cell activation assay and subsequent secondary validation screens. Top molecules will be further screened to identify inhibitory efficacy against a wild type primary splenocytes assay. Using these approaches, we hope to identify a small molecule with great efficacy and low toxicity for use as a molecular probe to further characterize AID's intricacies, or even as a therapeutic. A FRET based analysis of cytosine deamination, was developed to identify potential inhibitors of AID catalytic activity. This screen has two signal output, Read 1 evaluates the AID inhibition response. The second readout (Read 2) evaluates UDG response and is uses as a counterscreen to exclude false positive inhibitors. Inhibition in AID and inactivity in the UDG signal is the desired outcome for this assay.
PROTOCOL TABLE SEQUENCE No. (e.g., 1, 2, 3, etc.); […] (e.g., Cells, Incubation, Reagent, etc.); VALUE; DESCRIPTION 1a; Reagent; 3 uL; [4/3x] 1 uM AID/2.67 U/mL UDG 1b; Reagent; 3 uL; 2 U/mL UDG 1c; Reagent; 3 uL; 1 uM AID 2a; Compound; 46 nL; Follow-up plates (0.64 uM - 10 mM) 2b; Control; 46 nL; ATA (16.4 nM - 10 mM) 3; Time; 10 min; incubation at room temperature 4; Reagents; 1 uL; [4x] 250 nM DJC20 / 250 nM DJC23 [Substrate] 5; Time; 4 hr; incubation at room temperature 6; Reagent; 4 uL; [2x] 250 mM NaOH 7; Time; 15 sec; centrifuge at 1000 rpm 8; Time; 30 min; incubation at room temperature 9a; Detection; fluorescence (Read 1: AID); EnVision (PerkinElmer) plate reader, 540 excitation and 590 emission filters 9b; Detection; fluorescence (Read 2: UDG); EnVision (PerkinElmer) plate reader, 560 excitation and 665 emission filters NOTES (numbers refer to sequence above) 1a; Reagents were dispensed in a medium-binding black solid-bottom Greiner plates (789176F) using a BioRptr liquid dispenser. Dispense 3 uL of [4/3x] 1 uM AID (provided by Kohli lab) and [4/3x] 2 U/mL UDG (NEB M0280L) into columns 1, 2, 5 to 48. 1b; Dispense 3 uL of [4/3x] 2 U/mL UDG into column 3. 1c; Dispense 3 uL of [4/3x] 1 uM AID into column 4. 2a; Compound ([…] [uM]: 0.64; 3.2; 16; 80; 400; 2,000; 10,000; 20,000) double pin-transferred (Dip Factor = 2) using the Kalypsys (Wako USA) pintool equipped with a 1536 pinhead for a final concentration range of 7.32 nM - 114 uM. 2b; 10 mM Aurintricarboxylic Acid (Sigma A1895) (ATA, 8-point, n = 2, 1:2.5 dilution in column 2) double pin-transferred (Dip Factor = 2) using the Kalypsys (Wako USA) pintool equipped with a 1536 pinhead for a [final] range of 186 nM - 114 uM. 3; Room temperature incubation. 4; Dispense 1 uL of substrate mixture from the Kohli lab [4x] […] DJC20 and [4x] 250 nM DJC23 into columns 1 to 48 . 5; Room temperature incubation. 6; Dispense 4 uL of […] [2x] 250 mM NaOH into columns 1 to 48. 7; Centrifugation step to remove bubbles. […]
On the % scale 0 is the no-effect control and ±100 the full control effect.

Row | SMILES | activity, negative = inhibition
1 | C=CCc1c(C)nc2nc(SCC(=O)Nc3cccc(Cl)c3)nn2c1C | inactive: -1.94%
2 | COc1ccc(CN(Cc2ccco2)C(=O)COc2ccc(Cl)cc2C)cc1 | inactive: -5.94%
3 | Cc1c(C(=O)N(C)Cc2ccccc2)sc2nc(-c3ccc(F)cc3)cn12 | inactive: -20%
4 | Cc1ccc(C)c(NC(=O)CSc2nccn2-c2cccc(C)c2C)c1 | inactive: -14.5%
5 | Cc1nn(-c2nc(-c3ccccc3)cc(C(F)(F)F)n2)c(C)c1Cl | inactive: -5.99%
6 | CCCCN(C)CC(O)Cn1cc(/C=C/C(=O)c2ccc(Br)cc2)c2ccccc21 (centres undefined) | inactive: -14.5%
7 | CCCN1CCN(c2ncnc3sc(C(=O)Nc4ccc(C(C)C)cc4)c(C)c23)CC1 | inactive: -7.47%
8 | Cc1ccc(C)c(N2CCN(C(=O)c3cn(CC(C)C)c(=O)c4c3c3ccccc3n4C)CC2)c1 | inactive: -21.1%
9 | Cc1ccc(Cn2c(CCNC(=O)c3cccc(C)c3)nc3ccccc32)cc1 | inactive: -12.2%
10 | COc1ccc(-c2nc3sc(CCNC(=O)c4ccc(Br)o4)c(C)n3n2)cc1 | inactive: -4.97%
11 | CCC(C)c1ccc(OCC(=O)Nc2cccc(-c3nc4ncccc4o3)c2)cc1 (centres undefined) | inactive: -15.6%
12 | CCN(CC)S(=O)(=O)c1ccc(C(=O)NCCSc2c(-c3ccccc3)[nH]c3ccccc23)cc1 | inactive: 2.03%
13 | Cc1ccc(-n2ncc(C(=O)NCc3ccco3)c2C2CCN(C(=O)OC(C)(C)C)CC2)cc1C | inactive: -8.95%
14 | CCc1ccc(Nc2nc3ccccc3nc2NS(=O)(=O)c2ccccc2)cc1 | inactive: -7.57%
15 | CCC(Sc1nc2c(sc3ccccc32)c(=O)n1CCc1ccc(OC)c(OC)c1)C(=O)N(CC)CC (centres undefined) | inactive: -18.2%
16 | Cc1cc(C)cc(-n2ccnc2SCC(=O)Nc2cccc3ccccc23)c1 | inactive: -7.94%
17 | Cc1nc2cc(-c3ccccc3)nn2c(C)c1CCC(=O)N1CCN(c2ccc(F)cc2)CC1 | inactive: -9.73%
18 | CSc1nc(NCCOC(C)=O)c(C#N)c(-c2ccc(C(C)(C)C)cc2)n1 | inactive: -16.2%
19 | Cc1cccc(-n2ccnc2SCC(=O)Nc2cccc3ccccc23)c1 | inactive: 1.1%
20 | COc1cccc(CC(=O)Nc2ccc3nc(N4CCC(C)CC4)cc(C)c3c2)c1 | inactive: 7.48%

Row | SMILES | activity, negative = inhibition
21 | Cc1ccc(-c2sc(C(=O)Nc3ccc(Br)cc3)cc2CC(=O)O)cc1 | inactive: -3.84%
22 | CCn1c(=O)c2cc(C(=O)N(CCCOC(C)C)Cc3ccco3)sc2c2ccccc21 | inactive: -9.49%
23 | Cc1ccc(C(=O)N(Cc2ccco2)Cc2sccc2C)cc1 | inactive: -5.35%
24 | CCc1nnc2c(N3CCN(c4cccc(C)c4)C(C)C3)nc3ccccc3n12 (centres undefined) | inactive: -18.2%
25 | COc1cc(Cn2c(=O)oc3ccc(C)cc32)ccc1OCCC(C)C | inactive: -1.73%
26 | Cc1nn2c(=O)cc(COC(=O)C(c3ccccc3)c3ccccc3)nc2s1 | inactive: -3.6%
27 | CCc1ccc(CNC(=O)CCCN2C(=O)c3cccnc3Oc3ccc(Cl)cc32)cc1 | inactive: -19.1%
28 | Cc1cccc(NC(=O)c2oc3c(c2C)-c2[nH]ncc2CC3)c1C | inactive: 35.6%
29 | Cc1cccc(C)c1-n1ncc(C(=O)NCc2ccc3c(c2)OCO3)c1C1CCN(C(=O)OC(C)(C)C)CC1 | inactive: -16%
30 | CCn1c(=O)cc(OCC(=O)N2CCN(c3cccc(Cl)c3)CC2)c2ccccc21 | inactive: -13.2%
31 | COc1ccc(C(=O)NCCn2cc(SCC(=O)Nc3ccc(F)cc3)c3ccccc32)cc1 | inactive: 4.45%
32 | CCOc1ccccc1NC(=O)CSC1=Nc2ccccc2C2=NC(CC(=O)NCc3ccc4c(c3)OCO4)C(=O)N12 (centres undefined) | inactive: -4.51%
33 | COCCCNC(=O)c1oc2c(c1C)-c1nn(Cc3cccc(Cl)c3)cc1CC2 | inactive: -16.9%
34 | CCN(CCCNC(=O)c1cc2c(=O)n(C)c3ccccc3c2s1)Cc1ccccc1 | inactive: -25.3%
35 | Cc1ccc2c(c1)C(c1ccc(F)cc1)N(C(=O)COc1ccc(Cl)cc1Cl)CC(=O)N2 (centres undefined) | inactive: -5.86%
36 | Cc1[nH]c2ccccc2c1C1(O)C(=O)N(Cc2ccccc2Cl)c2ccccc21 (centres undefined) | inactive: -8.59%
37 | Cc1ccc(-c2cn(-c3cccc(Cl)c3)c(S(=O)(=O)CC(=O)Nc3cccc(C)c3)n2)cc1 | inactive: -17.8%
38 | CCn1cc(C(=O)NCCCN2CCCC(C)C2)c(=O)c2cc(S(=O)(=O)N(C)C3CCCCC3)ccc21 (centres undefined) | inactive: -10.5%
39 | Cc1nc2nc(SCC(=O)NC3CCC(C)CC3)nn2c(C)c1Cc1ccccc1 (centres undefined) | inactive: -11%
40 | CCCCN(CCCC)CCNC(=O)c1cn(CC)c2ccc(S(=O)(=O)N(C)C3CCCCC3)cc2c1=O | inactive: -18.3%

Row | SMILES | activity, negative = inhibition
41 | CCOc1ccc(CNCc2c(C(=O)O)n(Cc3ccccc3F)c3cc(OC)ccc23)cc1 | inactive: 1.08%
42 | CCN(CC)c1cc(C)c2cc(NC(=O)c3cccc(OC)c3)ccc2n1 | inactive: -9.48%
43 | Cc1ccc(/C=C/c2onc(C)c2S(=O)(=O)N2CCC(C(=O)N3CCC(N(C)C(C)C)CC3)CC2)cc1 | inactive: -13%
44 | COc1ccccc1Cn1cc(C(=O)c2ccccc2)c(=O)c2cc(OC)c(OC)cc21 | inactive: -24.3%
45 | CC1CCCCN1CCNC(=O)c1ccc(Cn2c(SCc3ccccc3)nc3cccnc32)cc1 (centres undefined) | inactive: -6.95%
46 | C=Cc1ccc(CN2C(=O)N(c3ccc(C)c(C)c3)S(=O)(=O)c3ccccc32)cc1 | inactive: 9.75%
47 | CCc1ccc(C(c2ccccc2)c2c(C)[nH]c3ccccc23)s1 (centres undefined) | inactive: 27.8%
48 | CCc1ccccc1NC(=O)CN(c1ccccc1OC)S(=O)(=O)c1ccc(C)cc1 | inactive: -5.91%
49 | CCn1cc(C(=O)NCCCOC)c(=O)c2cc(S(=O)(=O)N3CCc4ccccc4C3)ccc21 | inactive: -12.3%
50 | CC1=Nc2cc(C(=O)N3CCC(C)CC3)ccc2Sc2ccc(Cl)cc21 | inactive: -5.99%
51 | COc1ccccc1C(=O)Nc1ccc(C(=O)OCc2cc(=O)n3nc(C)sc3n2)cc1 | inactive: 2.56%
52 | Cc1cccc(CN2CCC(CNc3ncnc4onc(-c5ccc(Cl)cc5)c34)CC2)c1 | inactive: -1.56%
53 | Cc1ccccc1NC(=O)c1ccc(N(Cc2ccccc2)S(C)(=O)=O)cc1 | inactive: 0.827%
54 | Cc1ccc(NC(=O)c2c(NC(=O)C(F)(F)F)sc3c2CCCCC3)cc1 | inactive: 5.53%
55 | CCOc1ccc(-c2nc(SCC(=O)Nc3cc(F)ccc3F)n3[nH]c(=O)cc3n2)cc1 | inactive: -19.6%
56 | Cc1ccc(CSc2nc(-c3ccccc3C)nc3c2Cc2c(CO)cnc(C)c2O3)cc1 | inactive: -24.9%
57 | O=C(CC1N=C2c3ccccc3N=C(SCc3ccc(Cl)cc3)N2C1=O)NCCc1ccccc1 (centres undefined) | inactive: 14.2%
58 | CC(=O)N1CCc2c(sc3c2c(=O)n(CCc2ccccc2)c(=O)n3Cc2ccc(F)cc2)C1 | inactive: -15.5%
59 | CC(=O)N1CCc2c(sc3c2c(=O)n(Cc2ccccc2)c(=O)n3Cc2ccccc2F)C1 | inactive: -17.2%
